Data on 42 sequences can be found in PMC7819943, “Rice protein-binding microarrays: a tool to detect cis-acting elements near promoter regions in rice”.

The list shows a part of the results.

For the assay, the target named is T1, OsWOX13 (Oryza sativa, UniProt Q5QMM3 1-267).
T1 sequence: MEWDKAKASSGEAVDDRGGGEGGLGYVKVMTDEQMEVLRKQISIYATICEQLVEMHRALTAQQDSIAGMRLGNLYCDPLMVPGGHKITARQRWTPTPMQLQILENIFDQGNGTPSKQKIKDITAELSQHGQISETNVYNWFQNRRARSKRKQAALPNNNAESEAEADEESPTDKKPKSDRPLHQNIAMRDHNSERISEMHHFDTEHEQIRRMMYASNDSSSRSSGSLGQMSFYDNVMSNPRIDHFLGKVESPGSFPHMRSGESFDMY
The experiment in a line: protein-binding microarray (RPBM); PBS, 2% BSA, 51.3 ng/ul salmon testes DNA, 50 uM zinc acetate, 200 nM TF, 25 C, 1 h; high values mean tight binding. The conditions noted are these: protein: recombinant; tags: N-terminal polyhistidine and DsRed monomer fusion (pET32a); label: CyDye5-dUTP incorporated in the synthesized complementary strand; 3' TTTTT single-stranded linker to array surface; dsDNA, one strand shown. In outline: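 Binding signal is defined as the fluorescence intensity of each feature in arbitrary units, read on an Axon 4000B scanner. Transcription factors with N-terminal polyhistidine and DsRed fusions came from E. coli BL21-CodonPlus and were purified on Ni–NTA. They were incubated at 200 nM for 1 h at 25 °C on a custom Agilent array that had been made double-stranded with Cy5-dUTP, with 50 µM zinc acetate present, and the array was washed.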
In the case of “CTTAATAGCCAATTCATAACAATAGTTACAATTAATACTACGGAGTCACCTAGTGCAG”, the binding signal is 6980 fluorescence intensity (a.u.).

For “AGAGAGACTGTAATTGGTCACGTCTGTGAAAATCATCCTTCGGAGTCACCTAGTGCAG”, the binding signal is 7360 fluorescence intensity (a.u.).

Regarding “TTTAAATAAGTATAATCAAATGCTATCATGAACGCCAGATCGGAGTCACCTAGTGCAG”, the binding signal is 3510 fluorescence intensity (a.u.).

On to “CGGTTTTGATTAGTTAAGGGACGGCCGATATCTAGTTTTGCGGAGTCACCTAGTGCAG”, for which the binding signal was 35400 fluorescence intensity (a.u.).

Turning to “TTTAATTACGGGGTATAGTAATAAGTTTTGTGGCAGTCAACGGAGTCACCTAGTGCAG”, the binding signal is 14300 fluorescence intensity (a.u.).

Regarding “TTCTAATTTCAATCAAACTTTCAATTTTGACGTGAACTAACGGAGTCACCTAGTGCAG”, the binding signal was 43100 fluorescence intensity (a.u.).

For the sequence “TGTTAATTAGAAAAGAAGGAATTCTTAGGCTCGGTGAAACCGGAGTCACCTAGTGCAG”, the binding signal is 14200 fluorescence intensity (a.u.).

For the sequence “GCCGCTCAATTGATTGGTCGATAGCATAAAAGTAATTGGTCGGAGTCACCTAGTGCAG”, the binding signal is 44700 fluorescence intensity (a.u.).

On to “TCGCCGATTGATACATACATCATCCAAGCAGAGCAATCACCGGAGTCACCTAGTGCAG”, for which the binding signal is 19300 fluorescence intensity (a.u.).

For “GCTGACATAATTGCTTGTTGGGATTCTTGGGAGGAAATGGCGGAGTCACCTAGTGCAG”, the binding signal was 35300 fluorescence intensity (a.u.).

As for “CATCAACATATAATTGATTAAATATTAATTATAACAAACTCGGAGTCACCTAGTGCAG”, the binding signal was 45700 fluorescence intensity (a.u.).

As to “TATATAAATTGCTCTCTAATGCATTATAAAGCAAATAGCACGGAGTCACCTAGTGCAG”, the binding signal is 12400 fluorescence intensity (a.u.).

As to “TCTTGATTGAAACAATCTTTTGATCCCATAATCTTGCCCGCGGAGTCACCTAGTGCAG”, the binding signal was 63700 fluorescence intensity (a.u.).

For “AATAATAGAGATAATTTGTTTAGCGCTTCTAACATGTGTACGGAGTCACCTAGTGCAG”, the binding signal was 30400 fluorescence intensity (a.u.).

As to “AGACAAATGAATTGTTCATTACCACCGTCCCACAATCACACGGAGTCACCTAGTGCAG”, the binding signal is 3700 fluorescence intensity (a.u.).

Consider “CCCATCATCAATTACCGATGTGGGACTAAACCCAACAACGCGGAGTCACCTAGTGCAG”, for which the binding signal is 15700 fluorescence intensity (a.u.).

As to “TGTGTTCTTGATTTGTGTTGTGTTTGTAGATCGTAGTTTGCGGAGTCACCTAGTGCAG”, the binding signal was 10200 fluorescence intensity (a.u.).

On to “TCAAAATTTAAGTCATTTTACTCAAATGCACCAACAAGCACGGAGTCACCTAGTGCAG”, for which the binding signal was 4550 fluorescence intensity (a.u.).

For “AACCCTTTAATTTGTTCTTTGCTTCTTTAATCGTTGTTGACGGAGTCACCTAGTGCAG”, the binding signal was 6540 fluorescence intensity (a.u.).

“ATGATTTACCTGATCGTCAGGGACCGGTTTTCACCTTAAACGGAGTCACCTAGTGCAG”: the binding signal is 4540 fluorescence intensity (a.u.).

Consider “AAAATTACGGTCAAATTGTGCTAATCCATGGATTCAAATTCGGAGTCACCTAGTGCAG”, for which the binding signal is 4820 fluorescence intensity (a.u.).

With “CTTCAAGATTGACCGAGGGTGTTTGAAGTAGGTTTACCCCCGGAGTCACCTAGTGCAG”, the binding signal is 15300 fluorescence intensity (a.u.).

On to “TTCTAATTACTATTTAAGCTTATCCTAATTAACTCACATGCGGAGTCACCTAGTGCAG”, for which the binding signal is 33500 fluorescence intensity (a.u.).

With “CTTGACAAATTCCCTTCTGGGCTAACAAAACGAGTAATATCGGAGTCACCTAGTGCAG”, the binding signal was 3390 fluorescence intensity (a.u.).

As for “AACTAATTACACAGTTAGGGAGGAAATCGCGAGACAAATCCGGAGTCACCTAGTGCAG”, the binding signal was 19600 fluorescence intensity (a.u.).

Regarding “TCTTTCTGATTTATGAATACATGATCAGTGTTGTTATACACGGAGTCACCTAGTGCAG”, the binding signal was 8090 fluorescence intensity (a.u.).

As to “GGGGATTGGGAGTTTATACAAGGGAATTGATGGTGAGATTCGGAGTCACCTAGTGCAG”, the binding signal is 21000 fluorescence intensity (a.u.).

As for “CAAATTCCACGTAATTTATAATCTAAATATATGGAGTAGACGGAGTCACCTAGTGCAG”, the binding signal is 23400 fluorescence intensity (a.u.).

With “CTGCACAGTTAATTAAAGGAAAACTGGCGAAAACCCGGCACGGAGTCACCTAGTGCAG”, the binding signal is 8360 fluorescence intensity (a.u.).

For the sequence “AAATATAATTATGTTTACACCTACTTTCATATCTCAACAACGGAGTCACCTAGTGCAG”, the binding signal is 14400 fluorescence intensity (a.u.).

For the sequence “CACACAAATTACAAACCAAACAGAGAGAGAAAGACAGAGGCGGAGTCACCTAGTGCAG”, the binding signal was 4190 fluorescence intensity (a.u.).

With “AATAATTAGTGCAGGAAATGTTAACATAAAATTTGAAAATCGGAGTCACCTAGTGCAG”, the binding signal is 6380 fluorescence intensity (a.u.).

As for “CCTCCACTAATTAACAAAAGGAAATAGTAATACCCAAGCGCGGAGTCACCTAGTGCAG”, the binding signal was 22700 fluorescence intensity (a.u.).

Turning to “AATATAAATTTAGATTAGCAGTGGTAAGAAGAGGGACGTCCGGAGTCACCTAGTGCAG”, the binding signal is 22600 fluorescence intensity (a.u.).

As for “CAACATTAAATTAACCTCCAGTTTGTTAGTCTTCTCATTTCGGAGTCACCTAGTGCAG”, the binding signal was 5720 fluorescence intensity (a.u.).

On to “CGCGTGATGCTAATTATTGAAAGGCAAAGCGCTCCGAAATCGGAGTCACCTAGTGCAG”, for which the binding signal was 11900 fluorescence intensity (a.u.).

Consider “TTTTATAATTATTTAGGTCTCATGCACAAAACAAGAGGATCGGAGTCACCTAGTGCAG”, for which the binding signal is 9910 fluorescence intensity (a.u.).

Take “CTCTACTGATTTTGATTCTTGACAGAAACAAGAGATAGGGCGGAGTCACCTAGTGCAG”: the binding signal is 17400 fluorescence intensity (a.u.).

As for “CCAATAAATTAATTTCCCTCAATCCGGTATGTTGGTCACACGGAGTCACCTAGTGCAG”, the binding signal is 41800 fluorescence intensity (a.u.).

Consider “AATTTAACAAATTCTAATCAAGTAGCCATCTAGCTGTACGCGGAGTCACCTAGTGCAG”, for which the binding signal was 14000 fluorescence intensity (a.u.).

As to “AATGCTTGATTGCACTTCGCTGTTCAGTTCATCATGCCTACGGAGTCACCTAGTGCAG”, the binding signal is 27400 fluorescence intensity (a.u.).

Regarding “CATCGAACATCATGAATTTGATTGGCTTCTACTTTCACGACGGAGTCACCTAGTGCAG”, the binding signal was 17100 fluorescence intensity (a.u.).
